This is an account of results in publication PMC12136788.

The list shows a part of the results.

T1: UNK ZnF1-3 (human, UniProt Q9C0B0 31-174)
T1 sequence: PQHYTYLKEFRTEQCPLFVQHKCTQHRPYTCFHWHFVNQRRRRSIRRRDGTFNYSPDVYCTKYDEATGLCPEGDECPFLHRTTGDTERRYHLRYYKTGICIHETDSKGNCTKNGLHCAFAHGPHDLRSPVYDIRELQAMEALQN

B1: chr12:70442348:70442349:-_ENSMUSG00000020982_ENSMUST00000021368|mus_mus|FALSE|FALSE (ssRNA)
RNA: GGGAGUUCUACAGUCCGACGAUCAACCGGGUCUCCUUGAGCUUGAGCUUCUUUCACAAUCACUCCGAUUUCUGUCCAGUCUAUCUGGUUGGCCAACGCACUUCGGACUACCUGAAUGGCUCUGUCCACUAUCUGCAGGUUCAUCAACAGAGGAUUGAGCAUCA
B2: chr7:75932113:75932114:+_ENSG00000106211_ENST00000248553|hu_hu|hu_hu_hu_mus_False|38_98 (ssRNA)
RNA: GGGAGUUCUACAGUCCGACGAUCCUGCGACCACUCAUCCGGCAGCCGGGGCACCCCGAAAGCUUGAUCGAAGAGGCGGCUGUGUGCAGGGUACCAGCGGAAGGGGUGUUCCCAGCUCGGGCUCCGCAGCAGCGAGAAGGGCACCAACAGAGGAUUGAGCAUCA
B3: chr1:17371331:17371332:-_ENSG00000117118_ENST00000375499|hu_mus|FALSE|FALSE (ssRNA)
RNA: GGGAGUUCUACAGUCCGACGAUCCGUCUGCAUUCGAGGUUUAUCUCCAGUCUUGUCUGGGUCCCAUCGGUAAAUGGCAAAUUUUUUGAUUCUGGGAGCUGCAGCAGCAGCUGUCUGUGCCCCUCGACAGGCCUGAAACUGCAGCAACAGAGGAUUGAGCAUCA
B4: 226340194_226340314_1211_3pUTR_ENSG00000182827_ENST00000366812|human|control|control (ssRNA)
RNA: GGGAGUUCUACAGUCCGACGAUCGAACAGUGACCACUUCUCCUCGGCCCACUGUAAUCACGGAAUCUGCAUCCUGCUGAAUCUUCUCUUUGAAGUCUUUGAUCUGAGGUCGUGUCCACAUGGAUGGAGCUGCUAUUACUGGAACAACAGAGGAUUGAGCAUCA
B5: 106961284_106961404_693_CDS_ENSMUSG00000035770_ENSMUST00000041769|mouse|control|control (ssRNA)
RNA: GGGAGUUCUACAGUCCGACGAUCCUCCUCCGGUGGAAUCUUCAUCUUGUCAAUGUGCUCCCGUAAAACACUAGCCCACUUCUGCAGAGACUCCAUUAUCGUCCAAGGUCGAGACAUGUCGGCAACAAAAAUGACCAGGGUCUCCAACAGAGGAUUGAGCAUCA
B6: chr6:124691279:124691280:-_ENSMUSG00000072772_ENSMUST00000004389|mus_mus|FALSE|FALSE (ssRNA)
RNA: GGGAGUUCUACAGUCCGACGAUCCAGUGAAAUUGGGAGGGGUUUUCCGACCGAAGUCAGAAAACCUGCUAGACAAAUUCUAAAAGAGCUGUAACACUUGCGGAAGUGCGUCUGUAGCGAGCCAGGGAAGGACAUCAACUCCACCAACAGAGGAUUGAGCAUCA
B7: chr18:32917252:32917253:-_ENSG00000172466_ENST00000399061|hu_hu|FALSE|FALSE (ssRNA)
RNA: GGGAGUUCUACAGUCCGACGAUCUUCUUAAACUUUCACAACAUUCAGAAGUUUUUCUGCAUUGUGUCUUCUCUGAUGUCUAAAAAGAUUUGAGCUUUGACUAUACGAUUUCCCACACUGAACGCAUUCAUAAGGUUUCUCCCCCAACAGAGGAUUGAGCAUCA
B8: chr17:40995140:40995141:+_ENSG00000131467_ENST00000293362|hu_hu|FALSE|FALSE (ssRNA)
RNA: GGGAGUUCUACAGUCCGACGAUCCAUUACGAUCCAUGGGUGAUAGGGUGAGGAGGAGGGGCAGUGGAACAGUCCAACAAACGAAACGGGAAACUGAGAAACACAUGGAGGGAAGGGGGAAGGGUUUUAGCUGGAAGGGAUCUGCAACAGAGGAUUGAGCAUCA
B9: chr4:155540527:155540528:-_ENSMUSG00000041936_ENSMUST00000154494|mus_mus|FALSE|FALSE (ssRNA)
RNA: GGGAGUUCUACAGUCCGACGAUCGCCCGGACGGAAAGGAGGCCAGGCCAGCAGUCCUUCUGGCCAACGUGCAGUCAAGAAAAUCAUAUAAAAAUGCAACAAGUUUACAAAAAUAGAAAAUAAUUACAGGAGGGAAGGUGGCAGCAACAGAGGAUUGAGCAUCA
B10: chr3:9412954:9412955:+_ENSG00000134077_ENST00000452837|hu_mus|hu_hu_hu_mus_False|8_38 (ssRNA)
RNA: GGGAGUUCUACAGUCCGACGAUCGGUUGAUAUCUCUUCUUUGAUGGCUGGAUUUUCAUAAUAGUCCAAGAUAUGUGAAUCUGAAGUGCUGCUGGCAAACUCUUUUUUACCAUCUUUCUCAUCUGCUUUGACUUCUUGUCCACACAACAGAGGAUUGAGCAUCA
B11: chr6:124414581:124414582:-_ENSMUSG00000008153_ENSMUST00000008297|mus_mus|motif|central (ssRNA)
RNA: GGGAGUUCUACAGUCCGACGAUCGCGGUGCUAAGCACGCCAGGCCAGGCGUUCCUAUCCCCUGGGAGCCUCAAGCCUGCGGAUGCCACCUUGGGGGAGAAAUGCAGAGACUACGAGGGAAGGGCAGGGGGACAAGAUCGGAAACAACAGAGGAUUGAGCAUCA
B12: chr7:86439405:86439406:+_ENSMUSG00000039202_ENSMUST00000037315|mus_mus|motif|central (ssRNA)
RNA: GGGAGUUCUACAGUCCGACGAUCUUCCUUGAAGGGGUGUCCAGGUGGGCCAAUCAGAUCUGAUCUUAUAUUCAAAUUAACCGGAAAGCUUCUCUCAUUGACUCCAGCAGUCCAACCCGCCCGGAGUCCGGUUCCCGCAGCUCCCAACAGAGGAUUGAGCAUCA
B13: 118867020_118872158_2107_CDS_ENSG00000133835_ENST00000256216|human|control|control (ssRNA)
RNA: GGGAGUUCUACAGUCCGACGAUCGCCUUGGUACACUUUUCCAGAACCACUUUUCAGGUCAAUAGUCCACUUAGCCCCAAUAUUUCCGCCUUUGGUUAUAUGCCACUCAAAUACAGCAUUUACUUUCUUCACCACCUCAGGCCCCAACAGAGGAUUGAGCAUCA
B14: chr1:244855233:244855234:+_ENSG00000121644_ENST00000302550|hu_mus|hu_hu_hu_mus_True|48_98 (ssRNA)
RNA: GGGAGUUCUACAGUCCGACGAUCCAUCAGAUGGUAGGCAUUGCCUUUAUACUCUUUCCCCAGUUCUUCUACAAUUUUCUCUAUAUCAUCUUCUAGGAAGUCCGUACUUCCUAGAACAACAGCUUCUUUAAAUUUAAAUGUUUCCAACAGAGGAUUGAGCAUCA
B15: chr11:35642274:35642275:-_ENSMUSG00000018848_ENSMUST00000018992|mus_hu|FALSE|FALSE (ssRNA)
RNA: GGGAGUUCUACAGUCCGACGAUCCUGCUGACUUGGUGUCACUAGCAGAGGAGGAUUUUCCAAAUCUGGAUAUGCAGCCUUAAUUGCAUGACCAAAGACCUCUUGUAGGCGGCUAAUAAUGUUAAUCAUAUUUUUAGUUGGUUUCAACAGAGGAUUGAGCAUCA
B16: chr2:237995794:237995795:+_ENSG00000198612_ENST00000392008|hu_hu|FALSE|FALSE (ssRNA)
RNA: GGGAGUUCUACAGUCCGACGAUCGUAUUCUUUUCCAAAGAUAUCUUGCAUUAUUCAUGUCAUUAUGGAGCAAAUAUAAAGCUAGAAGCUGACCAUACACUGGGGGUGUAGCAAUUCCUCCAGGGGCUAUUAUAAGAAACAAAUCAACAGAGGAUUGAGCAUCA
B17: chr2:44436386:44436387:+_ENSG00000138032_ENST00000378551|hu_mus|FALSE|FALSE (ssRNA)
RNA: GGGAGUUCUACAGUCCGACGAUCCUCUGAAUCUCUCUUCACGGCUUCCUCUGAGACCUUGGGGGCAUUUGAAAAGCAAACUAAUACAACACUCAUGUUAUCUCGACUUCCCUUAUGUAAACAAGUGUCCACUACCCAAUUGCACAACAGAGGAUUGAGCAUCA
B18: chr16:49913422:49913423:+_ENSMUSG00000055447_ENSMUST00000084838|mus_hu|FALSE|FALSE (ssRNA)
RNA: GGGAGUUCUACAGUCCGACGAUCAAAAGGACAAAUGGUGUCACUGUGAGAACACACAAUAAAUAAAACUGAAUGGAAGAGUCAACAGCAGAAACUGGGAUCAGGGAGUAAAAAGCAUAUUAUGGGACAAAACAGAUACAUGAUCAACAGAGGAUUGAGCAUCA
B19: chr19:16212804:16212805:+_ENSG00000167460_ENST00000300933|hu_mus|hu_hu_hu_mus_False|78_88 (ssRNA)
RNA: GGGAGUUCUACAGUCCGACGAUCAACAAUUCUGGAGUGAAGGAAAGCAUCAAGGAUCAAUUAAUUAAAAGCUCAGUCAGAAGGCACAUGGGCAACAAUGAUCACCCCAGCAUUCUCGCUUGGAAUGCUUAAAGACAAUCUGUUCAACAGAGGAUUGAGCAUCA
B20: 153512049_153512169_4045_3pUTR_ENSG00000196504_ENST00000410080|human|control|control (ssRNA)
RNA: GGGAGUUCUACAGUCCGACGAUCUUUUUUUUUUAGACAAGGAUAUUGCAACUAUCACUUAAAGUCUGGUGGCACAUUCUUUAGUAGGUCCUUAAGGCAAUAUAUUUAAAUUAAUUUACAAUUUGAUUUGAUGUUAAAGUUUUUCAACAGAGGAUUGAGCAUCA
B21: chr9:100883651:100883652:-_ENSG00000106789_ENST00000375077|hu_hu|motif|central (ssRNA)
RNA: GGGAGUUCUACAGUCCGACGAUCGGGUAUGGAAUAAGGAGAUGAGAGCAUGCUCUGCCAACUGGCUGGGACCUGAAUGUGCGGGGCAAGUUCCACUACAUCAGCUCAAGAACAUAAACAAAAAUGUAAUUUAAAAAACAGAUGCAACAGAGGAUUGAGCAUCA
B22: chr2:32641123:32641124:+_ENSG00000115760_ENST00000421745|hu_hu|FALSE|FALSE (ssRNA)
RNA: GGGAGUUCUACAGUCCGACGAUCAGUGCCCUCCUUUUUGGGAGGCUCCACUUUGGCCAAAAUUUCAAAGUUUGAAAGAUCUAGUAUUUUUACAUAUCCUCCCUGAGUGGUUAUUACCAGGUGUCCAAGAGUAGAAAUGUCAGACAACAGAGGAUUGAGCAUCA

The target in the test is T1, UNK ZnF1-3. The test can be described thus: nsRBNS (natural sequence RNA bind-n-seq); RBNS binding buffer (assumed for nsRBNS): 25 mM Tris pH 7.5, 150 mM KCl, 3 mM MgCl2, 0.01% Triton X-100, 500 ug/ml BSA, 20 U/ml SUPERase-In, 4 C; UNK is unkempt and MSI1 is Musashi-1; names of the RNAs are library labels; protein concentration not given here; high values mean tight binding.
B1 gave a binding signal of 0.838 enrichment R.
Under B2 stands 1.58 enrichment R; under B3, 0.958 enrichment R; under B4, 0.952 enrichment R.
As for B5, the binding signal was found to be 0.945 enrichment R.
Under B6 stands 0.864 enrichment R; under B7, 0.958 enrichment R.
B8: the binding signal worked out at 2.12 enrichment R.
Under B9 stands 3.25 enrichment R.
Regarding B10, the binding signal is 0.239 enrichment R.
Under B11 stands 1.23 enrichment R.
Under B12 stands 0.865 enrichment R.
Under B13 stands 0.938 enrichment R; under B14, 1.12 enrichment R; under B15, 0.822 enrichment R.
With B16, the binding signal is 1.09 enrichment R.
In the case of B17, the binding signal is 0.993 enrichment R.
Under B18 stands 2.63 enrichment R; under B19, 1.54 enrichment R.
Under B20 stands 2.98 enrichment R.
Under B21 stands 3.22 enrichment R; under B22, 0.986 enrichment R.
